Measurements from PubChem BioAssay AID588453 (National Center for Advancing Translational Sciences (NCATS), 2011).
Screen size: about 390,000 compounds; about 4,000 (1%) were called active. The shares of active, inactive and inconclusive entries below differ from those in the screen. Calls follow the shape of the dose curve; as a rule, active = well fitted inhibition curve with a large enough effect; inconclusive = small, poorly fitted or top-dose-only effect; inactive = no such curve, though single readings can be large or run the other way. Potencies beside an inconclusive call are fits to weak or partial responses and may not hold up.

Target: Thioredoxin reductase 1, cytoplasmic (Rattus norvegicus) (UniProt O89049)
Sequence of UniProt O89049 (O89049 whole entry, looked up): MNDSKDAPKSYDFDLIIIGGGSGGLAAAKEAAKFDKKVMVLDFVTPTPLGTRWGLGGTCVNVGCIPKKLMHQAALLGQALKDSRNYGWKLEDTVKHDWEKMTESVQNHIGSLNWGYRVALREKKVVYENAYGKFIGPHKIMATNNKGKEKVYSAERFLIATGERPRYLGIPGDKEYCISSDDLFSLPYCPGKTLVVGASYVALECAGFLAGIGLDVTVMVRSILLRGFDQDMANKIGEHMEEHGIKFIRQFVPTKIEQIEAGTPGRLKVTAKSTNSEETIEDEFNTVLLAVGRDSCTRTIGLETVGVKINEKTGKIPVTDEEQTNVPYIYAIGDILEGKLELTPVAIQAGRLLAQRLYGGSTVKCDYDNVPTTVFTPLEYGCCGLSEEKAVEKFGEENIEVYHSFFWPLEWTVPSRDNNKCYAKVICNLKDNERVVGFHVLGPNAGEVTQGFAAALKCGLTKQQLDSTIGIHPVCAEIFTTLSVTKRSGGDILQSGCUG
Assay: qHTS Assay for Inhibitors of Mammalian Selenoprotein Thioredoxin Reductase 1 (TrxR1): qHTS; also: nearly all actives have a fitted effect of over 65% in size
Settings: recombinant rTrxR1, NADPH fluorescence consumption, selenite substrate; series mostly up to 114 µM
Outline: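 Rat TrxR1 (90 nM in the dispensed reagent) was pre-reduced with 400 uM NADPH for 5 min at room temperature, then incubated with compound for 15 min. After 400 uM selenite was added, NADPH fluorescence (Ex 340/Em 450 nm) was followed for 8 min.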
% is scaled to controls: 0 for no effect and ±100 for the full control effect; potency is read from the fitted curve at half-maximal effect; tags tell the direction and shape of the fitted curve.

Structure (SMILES) | Potency | activity change, negative = inhibition
Cc1cccn2c(=O)c(C(=O)NC3CC(C)CC(C)(C)C3)c(O)nc12 (stereo not given) | inconclusive: 28.2 µM [inhibitor, single point] | –
COc1cc(/C=C2\C(=O)ON=C2c2ccc(Cl)cc2)ccc1O | active: 20 µM | –
CCOc1cc(/C=N/Nc2ccccc2Cl)ccc1OCC(=O)O | inconclusive: 50.1 µM [inhibitor, partial curve] | –
COc1ccc(OC)c(NC(=O)Cn2cc(C(=O)c3ccc(Cl)cc3)c(=O)c3cc(OC)ccc32)c1 | inactive | –
CC(=O)Nc1nonc1-c1nnc(SCc2ccccc2Cl)n1C | inactive | –
CCn1cc(/C=C(\NC(=O)c2cc(OC)c(OC)c(OC)c2)C(=O)N2CCN(C)CC2)c2ccccc21 | inconclusive: 70.8 µM [inhibitor, partial curve] | –
CSc1ccc(/C=C/C(=O)Nc2ccccc2)cc1 | inactive | –
O=C(CSc1nnc(-c2ccccc2)c(-c2ccccc2)n1)NCc1ccco1 | inconclusive: 10 µM [inhibitor, full curve] | –
CCc1c(C)c(C#N)c2nc3ccccc3n2c1Nc1cccc(C(F)(F)F)c1 | – | inactive: 10.7% [at 11.4 µM]
CCOC(=O)c1c(CN(CC)CC)n(C)c2cc(Br)c(O)cc12 | inconclusive: 89.1 µM [inhibitor, single point] | –
COc1ccc(-c2nc(S(=O)(=O)c3ccc(C)cc3)c(NCc3ccccc3)o2)cc1 | inconclusive: 17.8 µM [inhibitor, partial curve] | –
CCC(=O)Nc1ccc2c(c1)nc1n2CCN(CCOC)C1 | inconclusive: 56.2 µM [inhibitor, partial curve, poor fit] | –
COc1ccc(C(=O)NC(=S)NCc2ccccc2)cc1 | active: 22.4 µM | –
O=C(Nc1ccn(Cc2ccccc2F)n1)c1ccc(COc2cccc(Br)c2)cc1 | inactive | –
CCC(=O)N(Cc1ccco1)c1nc(C(=O)Nc2ccc(Cl)cc2)c(C)s1 | inconclusive: 25.1 µM [inhibitor, partial curve, poor fit] | –
CCOC(=O)C1(Cc2ccccc2C)CCCN(C(=O)c2ccc(COC)o2)C1 (stereo not given) | inconclusive: 70.8 µM [inhibitor, partial curve] | –
CCOC(=O)C1CCN(C(c2cc3c(C)ccc(C)c3[nH]c2=O)c2nnnn2C2CCCCC2)CC1 (stereo not given) | inconclusive: 17.8 µM [inhibitor, single point] | –
Cc1c(C(c2cc(O)ccc2O)c2c(C)n(C)n(-c3ccccc3)c2=O)c(=O)n(-c2ccccc2)n1C | active: 70.8 µM | –
Cc1ccc(C(=O)O)cc1NC(=S)NC(=O)c1ccc(-c2ccc(Cl)cc2)o1 | inconclusive: 70.8 µM [inhibitor, partial curve] | –
CCCCCc1nnc(NC(=O)Cc2cccs2)s1 | inconclusive: 28.2 µM [inhibitor, partial curve, poor fit] | –
C/C(CC(C)C)=N\Nc1ccc(S(N)(=O)=O)cc1[N+](=O)[O-] | inconclusive: 70.8 µM [inhibitor, partial curve, poor fit] | –
O=C(NCc1ccccc1)c1ccc(CS(=O)(=O)c2ccccc2)o1 | inconclusive: 35.5 µM [inhibitor, partial curve, poor fit] | –

Structure (SMILES) | Potency | activity change, negative = inhibition
O=C(NC(=S)Nc1ccccc1N1CCCCC1)c1ccc(-c2cccc([N+](=O)[O-])c2)o1 | inconclusive: 56.2 µM [inhibitor, partial curve] | –
Cc1ccc(-c2nnc(Nc3ccc4c(c3)nc(C)n4C)c3ccccc23)cc1 | inconclusive: 28.2 µM [inhibitor, single point] | –
CCN(CC)c1ccc(NC(=S)NC(=O)Cc2ccccc2)cc1 | inconclusive: 44.7 µM [inhibitor, partial curve] | –
COc1ccc(NC(=S)NCc2cccs2)cc1OC | inconclusive: 89.1 µM [inhibitor, partial curve, poor fit] | –
COC(=O)c1ccc(OC(=O)c2ccncc2)cc1O | inconclusive: 15.8 µM [inhibitor, partial curve, poor fit] | –
COc1ccccc1OCC(=O)OCn1c(SC)nnc(C)c1=O | inconclusive: 17.8 µM [inhibitor, full curve] | –
Cc1cc(-c2cc(-c3ccc(Cl)cc3)nc(N)c2C#N)co1 | inconclusive: 14.1 µM [inhibitor, partial curve] | –
COc1ccc(NS(=O)(=O)c2cccc(C(=O)NN=C(C)c3ccco3)c2)cc1 | inconclusive: 79.4 µM [inhibitor, single point] | –
N#Cc1c(C#N)c(O)c2ccccc2c1O | inactive | –
Cc1c(C#N)c(NC(=O)CCl)n(Cc2ccc(F)cc2)c1C | inconclusive: 2.24 µM [inhibitor, full curve] | –
Cc1ccc(NC(=S)NCC23C=CC(O2)C2C(=O)N(c4ccc(C)cc4)C(=O)C23)cc1 (stereo not given) | active: 10 µM | –
N#CC1=C(N)C(C#N)(C#N)[C@H](c2ccoc2)[C@H]2CN(Cc3ccccc3)CC=C12 | inactive | –
Cc1ccc(SCC(=O)Nc2ccc3oc(-c4cccc(C)c4)nc3c2)cc1 | inactive | –
O=C(Cn1cc(SCc2ccccc2Cl)c2ccccc21)N1CCCCCC1 | inactive | –
CC(=O)Nc1cc(O)c2nonc2c1O | active: 5.62 µM | –
COc1ccc(C2CC(=O)N3CN(C4CCCCC4)CSC3=C2C#N)cc1 (stereo not given) | inconclusive: 14.1 µM [inhibitor, partial curve, poor fit] | –
C#CCOCCOCCOCCNc1nc(N2CCN(C(=O)C([C@@H](C)CC)n3cc(C(N)COC(=O)C(F)(F)F)nn3)CC2)nc(N2CCN(C(=O)[C@H](CCCCN)n3cc(C(N)[C@H](C)CC)nn3)CC2)n1 (stereo not given in full) | active: 50.1 µM | –
COc1ccc(NC(=O)CCCS(=O)(=O)c2nc(-c3ccc(OC)c(OC)c3)cc(C(F)(F)F)n2)cc1OC | active: 25.1 µM | –
CCCCC(=O)Nc1ccc(C(=O)NNC(=O)c2ccc(C)c(Br)c2)cc1 | inactive | –
CCCNC(=O)COC(=O)/C=C/c1ccco1 | inconclusive: 70.8 µM [inhibitor, partial curve, poor fit] | –
O=C(CN1C(=O)CC(c2ccco2)Sc2ccccc21)NCC1CCCO1 (stereo not given) | inconclusive: 28.2 µM [inhibitor, single point] | –
COCCn1c(=S)[nH]c2cc(C(=O)N3CCN(Cc4ccccc4)CC3)ccc2c1=O | inconclusive: 44.7 µM [inhibitor, partial curve] | –

Structure (SMILES) | Potency | activity change, negative = inhibition
CCN(CC)CCn1cnc2c([nH]c3cccc(OC)c32)c1=O | inconclusive: 89.1 µM [inhibitor, single point] | –
Cc1ccc(CN2CC34C=CC(O3)C(C(=O)NCc3ccco3)C4C2=O)cc1 (stereo not given) | inconclusive: 39.8 µM [inhibitor, partial curve] | –
Cc1cc(O)c(C(c2cccc(Cl)c2)N2CCN(c3ccccc3)CC2)c(=O)n1Cc1ccco1 (stereo not given) | inconclusive: 11.2 µM [inhibitor, partial curve, poor fit] | –
Cc1cc(-n2c(=O)c(C#N)cc3c(=O)n4cccc(C)c4nc32)no1 | inconclusive: 12.6 µM [inhibitor, full curve, poor fit] | –
Cc1ccc(C(=O)CCC(=O)N2CCN(C(=O)c3ccco3)CC2)cc1 | inconclusive: 39.8 µM [inhibitor, partial curve, poor fit] | –
COCCCn1c(=N)c(C(=O)NC2CCCC2)cc2c(=O)n3ccccc3nc21 | inconclusive: 70.8 µM [inhibitor, single point] | –
COc1cc2[nH]c(=S)nc(NCc3ccc(Cl)cc3)c2cc1OC | inactive | –
Cc1cc(N(C)C)cc(C)c1C=O | inconclusive: 89.1 µM [inhibitor, single point] | –
CCOc1ccc(N2C(=O)C3CC(C)=C(C)CC3C2=O)c([N+](=O)[O-])c1 (stereo not given) | inconclusive: 35.5 µM [inhibitor, single point] | –
CCCSc1cc(NCCOC(=O)CCC)c([N+](=O)[O-])c2nonc12 | inconclusive: 2 µM [inhibitor, full curve, poor fit] | –
CCOc1ccc(N(CC(=O)Nc2cccc(F)c2)S(=O)(=O)c2c(C)noc2C)cc1 | inactive | –
CCN1CCN(C(=S)NC(=O)c2cc(OC)c(OC)c(OC)c2)CC1 | inconclusive: 50.1 µM [inhibitor, partial curve, poor fit] | –
Cc1cccc(C(CC(=O)NCC2(c3ccccc3)CCCC2)c2ccccc2)c1O (stereo not given) | inactive | –
Nc1cnccc1C(=O)O | inconclusive: 79.4 µM [inhibitor, partial curve] | –
O=C(CSc1oc(-c2ccco2)nc1S(=O)(=O)c1ccc(Cl)cc1)c1ccccc1 | inconclusive: 79.4 µM [inhibitor, partial curve] | –
Fc1ccc(CSc2ccc(-c3ccco3)nn2)cc1 | inconclusive: 50.1 µM [inhibitor, partial curve] | –
Cc1cc(NC(c2cccnc2)c2ccc3cccnc3c2O)no1 (stereo not given) | inconclusive: 22.4 µM [inhibitor, full curve] | –
S=c1nc(C2CC2)n(-c2ccccc2)[nH]1 | inconclusive: 3.16 µM [inhibitor, partial curve, poor fit] | –
O=C(Nc1c2c(nn1-c1cccc(Cl)c1)CS(=O)(=O)C2)c1ccco1 | inconclusive: 22.4 µM [inhibitor, full curve] | –
COCCCNC(=O)c1c(N)n(/N=C/c2cccnc2)c2nc3ccccc3nc12 | inconclusive: 44.7 µM [inhibitor, partial curve, poor fit] | –
O=C1CCCC/C1=C/Nc1ccc(S(=O)(=O)Nc2ncccn2)cc1 | inconclusive: 50.1 µM [inhibitor, partial curve] | –
